Reference: the supplement of paper PMC3334620
The full ranking holds about 33,000 sequences; the median of “E-score (-0.5 to 0.5)” is about -0.012, and the highest 2% start at about 0.29. The list shows a part of the results.

Target: T1, Ybr033w (UniProt P38073)
T1 sequence: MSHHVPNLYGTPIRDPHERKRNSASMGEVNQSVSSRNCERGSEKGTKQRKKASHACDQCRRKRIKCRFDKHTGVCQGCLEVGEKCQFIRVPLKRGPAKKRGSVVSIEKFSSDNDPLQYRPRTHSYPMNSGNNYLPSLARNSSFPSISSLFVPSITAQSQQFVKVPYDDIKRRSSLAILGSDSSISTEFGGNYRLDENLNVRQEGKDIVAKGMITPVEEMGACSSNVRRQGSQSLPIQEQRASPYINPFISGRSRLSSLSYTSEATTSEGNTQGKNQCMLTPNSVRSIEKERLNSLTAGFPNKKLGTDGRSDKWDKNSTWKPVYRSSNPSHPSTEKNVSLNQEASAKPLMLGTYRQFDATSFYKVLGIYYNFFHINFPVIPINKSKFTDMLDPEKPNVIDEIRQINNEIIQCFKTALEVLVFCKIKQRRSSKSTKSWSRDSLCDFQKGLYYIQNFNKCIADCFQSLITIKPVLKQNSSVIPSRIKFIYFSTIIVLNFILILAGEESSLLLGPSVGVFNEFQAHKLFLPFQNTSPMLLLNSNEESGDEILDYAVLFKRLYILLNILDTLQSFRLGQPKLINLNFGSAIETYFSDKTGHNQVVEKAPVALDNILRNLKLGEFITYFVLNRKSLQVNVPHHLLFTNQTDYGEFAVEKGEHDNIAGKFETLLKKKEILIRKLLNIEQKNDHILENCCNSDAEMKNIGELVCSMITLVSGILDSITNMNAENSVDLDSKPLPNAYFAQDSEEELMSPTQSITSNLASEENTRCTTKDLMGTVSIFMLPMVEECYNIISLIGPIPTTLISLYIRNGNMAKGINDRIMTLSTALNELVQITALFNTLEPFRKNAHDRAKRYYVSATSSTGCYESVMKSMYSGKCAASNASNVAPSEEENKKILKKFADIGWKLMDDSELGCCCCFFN
Test: PBM E-score (8-mer binding enrichment) (E-score (-0.5 to 0.5)); higher = stronger / more preferred TF binding; most listed sequences are background and not binding sites
Conditions: protein concentration: 200 nM; construct: GST-full length
In short: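 Detection of bound protein used fluorescent anti-GST, with scans normalised by masliner. The proteins were GST-tagged yeast transcription factors applied at about 100-200 nM to universal all-10-mer Agilent arrays made double-stranded by primer extension. Each ungapped eight-base word, pooled with its reverse complement, was scored with an E-score from the Universal PBM Analysis Suite.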

Sequence | PBM E-score
CAAATTAC | 0.161
GAGACGAC | -0.038
CTTAGGAA | 0.13
AGAGTAAC | 0.0237
ACGATAGG | -0.0592
TCAACTAA | 0.173
GACGTTAA | 0.0676
AACTTAGG | 0.0738
GTCTGGCA | -0.00403
CAGGATAC | -0.182
AATCATAT | 0.126
TAGGGAAA | -0.00431
CTGTGTAA | 0.138
GTGACAAC | 0.151
AAGCCTCC | -0.111
CTTTCATA | 0.252
GAGATGAA | -0.116
AAAATAGG | 0.19
CCGGCGCC | -0.127
GCTAGAGA | 0.0592
ACGGTTCG | -0.164
CGACTCTC | -0.164
GAAAGACC | -0.187
CTTGATTA | 0.168
ATAGAGTG | 0.0526

Sequence | PBM E-score
GGTGGACA | -0.156
AAATTCGG | 0.257
CTATATCA | 0.248
AAAATGTA | 0.207
ACGTTCGA | -0.0218
AGATGAAC | 0.131
ATGACCAG | 0.00781
GGTTGCGA | 0.0313
CGGGGTTA | -0.0771
ATAGCAAT | 0.146
AATGTTGC | 0.0212
AAGTTGCG | 0.095
CAGGCACG | -0.2
CCCGCTCC | -0.352
AAGGCCGC | 0.00241
AGATTGGC | -0.0966
AGAGCAGG | 0.0576
TATCGAGA | 0.136
ACAAGACT | -0.087
CCCAGGGG | -0.27
GGTAGCCA | -0.234
AAAATCTC | 0.138
CTTCGAGC | -0.158
GCCAAGAC | -0.082
CTGACCAC | -0.1

Sequence | PBM E-score
ATTCGCCA | -0.0296
AGGCCTCC | -0.329
GGATTCAC | -0.157
ATTGGCTG | -0.111
TATTGTAA | 0.167
TCACCTCA | 0.0189
CGGCTCAA | 0.103
AGCCCTAG | -0.0824
GCTAACCA | -0.0185
CGTGATGA | -0.0784
CATTAAAA | 0.319
ATGCTAAT | 0.226
AAGTCGCT | -0.0995
GGAGGCCC | -0.319
CGCCGGGC | -0.226
GAGCTTAC | 0.0325
ATGTACAC | 0.0657
CCCGGGGC | -0.191
CCCTGACG | -0.138
CACGCGGA | -0.091
GAACCATC | 0.083
GACCAAAA | 0.27
GCGGATAA | 0.416
AACTCAGT | 0.0757
TACACAAA | 0.204

Sequence | PBM E-score
CCGCCAAA | 0.0792
AACTACAC | 0.134
CCACCCAG | -0.15
AATAGCTA | 0.0993
GATAGTCA | -0.0395
GTATGGAA | 0.085
CCTGTGAA | 0.0953
GCTCTTAA | 0.0193
GGGGTAGA | -0.0421
AAAGCATA | 0.0585
ATCTATAA | 0.197
CAGGTACA | -0.0554
CATATTCC | 0.0424
GGGCTCCA | -0.334
TATTGCAA | 0.246
CGCAAAAG | -0.0343
CGTACCTA | -0.114
CATATCCC | 0.101
CGACTCAC | -0.144
AGGGGAAT | 0.0254
GGAAGCAC | -0.063
CTTAGAGA | -0.0853
CTAGAGAA | 0.137
AAGCAAGG | -0.0139
AACCTCAG | 0.0743

Sequence | PBM E-score
TACCAGGA | 0.0574
TAAAGTCA | 0.117
ATGTAGCA | 0.0511
CAAGGCCC | -0.129
AGAATCGG | -0.0802
ACTATATG | 0.256
TTAGTGAA | 0.14
CAAAAGAC | 0.0582
GATGCCCA | -0.0455
GAGGATGC | -0.183
CTCGCTCA | 0.00555
GCATATAA | 0.102
CACATTGC | 0.16
ATCGGATA | 0.199
CTGCCTTA | -0.146
CGTGATCC | -0.149
CTGGCGCC | -0.0825
CACCCTAC | 0.0503
CCCTAAAG | -0.225
CGGGGAGA | -0.304
CTGAGCTC | -0.105
GGTTTGAC | -0.0432
CGTAGAAG | 0.00869
ATACGTGG | 0.177
TAAATCCA | 0.182

Sequence | PBM E-score
ATATCTGG | 0.137
ACTACGAC | -0.0273
CTTCATTC | 0.0202
CTCCGCAG | 0.0368
GATAAGGC | -0.12
AAAAGGCG | -0.159
CCTAATCC | -0.274
AATAAATC | 0.263
GAGTTGAA | -0.064
CATACGAA | 0.149
CTTCCCGC | 0.0878
GTCCCCTA | -0.329
AGTGAACT | -0.0359
ACCCATCA | -0.172
AGGGCCCA | -0.356
AACTGGCT | -0.0714
AGAGCGGG | -0.187
CGAAGGCC | -0.246
CAGAGCAC | -0.115
GATCTGGC | -0.0426
GGGGGCAC | -0.389
ATCGGTGG | -0.146
ATCCGATG | 0.0624
CCCCTTCC | -0.297
ATTCACAA | 0.294

Sequence | PBM E-score
ACTAAAGG | 0.0297
GAATGGGC | -0.0502
CGCACGCG | -0.198
CGAAGCCG | -0.216
ACATGCTA | -0.0448
CTAATTAC | 0.131
GGTAATAA | 0.228
AGAGTCAA | -0.0338
AGCAATAT | 0.282
AGGTAGCA | -0.121
CTTGTGGA | 0.0482
ATGTACGG | 0.0999
CATGGGAA | 0.102
AAGGAGAC | -0.139
CGCGTTTA | 0.0944
CGAAGTCG | 0.0931
ACCATAGG | -0.0779
AATAAAAA | 0.252
GAGTTAGA | -0.0392
GATGGTAA | 0.0411
AGTTGGCG | 0.0839
GATTATCA | 0.19
